About 200 (0.44%) of roughly 45,000 compounds were called active. Not shown: some 7% with an inconclusive outcome. Calls come from the whole dose curve; as a rule, active = well fitted activation curve with a large enough effect; inconclusive = small, poorly fitted or top-dose-only effect; inactive = no such curve, though single readings can be large or run the other way. This is one part of the list.
Assay: qHTS of TDP-43 Inhibitors: NCGC Sytravon Library Screen; note: 0% is about no effect; nearly all actives have a fitted effect of over 55% in size
Conditions: yeast TDP-43 toxicity rescue, BacTiter-Glo growth, 24 h; series mostly up to 46.1 µM; growth rescue (activation): at the top concentration
Summary of the method: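 TDP-43-expressing yeast, pregrown in raffinose, seeded at OD600 0.02 in galactose medium with compound for 24 hr at 30 deg C. Growth read by BacTiter-Glo luminescence, so rescue of toxicity appears as activation.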
In the case of `O=C(C1CN(S(=O)(=O)c2ccccc2)CCN1S(=O)(=O)c1ccccc1)N1CCCCCC1` (configuration not stated), the “growth rescue (activation)” value is reported as inactive: 5.42%. For `Cc1cccc(C)c1-n1c(SCC(=O)N2CC(=O)Nc3ccccc32)nc2ccccc2c1=O`, the “growth rescue (activation)” value was inactive: 5.37%. For `CCN(CC)CCOC(=O)c1ccc(N/C=C(/C#N)c2nc(-c3ccc(OC)c(OC)c3)cs2)cc1`, the “growth rescue (activation)” value was inactive: -83%. For `Cc1cc(Nc2ccccc2O)c2ccccc2n1`, the “growth rescue (activation)” value was inactive: 13.1%. In the case of `COc1ccc(C2CCCCCN2Cc2nc3ccccc3c(=O)n2CC(N)=O)cc1` (configuration not stated), the “growth rescue (activation)” value is reported as inactive: -0.819%. In the case of `CCN(CC)S(=O)(=O)c1ccc(N2CCOCC2)c(NS(=O)(=O)c2ccc(C)cc2)c1`, the “growth rescue (activation)” value is reported as inactive: -8.97%. With `CC(C)CN(CC(C)C)CC(O)CN(c1ccccc1)S(=O)(=O)c1ccccc1[N+](=O)[O-]` (configuration not stated) the “growth rescue (activation)” value was inactive: -5.5%. With `COc1ccc(C(C(=O)NCC2CCCO2)N(C(=O)CNC(=O)c2cccs2)c2ccccc2)cc1OC` (configuration not stated) the “growth rescue (activation)” value was inactive: 2.18%. For `CN(C)c1nc(C(=O)O)nc(N2CCOCC2)n1`, the “growth rescue (activation)” value was inactive: 10.2%. With `COCCN(CCOC)Cc1c(O)ccc2c1O/C(=C\c1ccc(C)o1)C2=O` the “growth rescue (activation)” value was inactive: -7.61%. In the case of `CN1CCN(C(N)=NC(=O)c2ccccc2)CC1`, the “growth rescue (activation)” value is reported as inactive: -14.1%. For `CCOC(=O)c1c(C)[nH]c(C(=O)COC(=O)CNC(=O)c2ccc(Br)cc2)c1C`, the “growth rescue (activation)” value was inactive: 22.1%. With `CC1S/C(=N/N=C2CCCCC2)NC1=O` (configuration not stated) the “growth rescue (activation)” value was inactive: 0.0251%. In the case of `CN(C)S(=O)(=O)c1ccc(Cl)c(-c2nnc3n2CCCCC3)c1`, the “growth rescue (activation)” value is reported as inactive: 4.89%. With `Cc1ccc(S(=O)(=O)Nc2nc3ccccc3nc2NCC2CCCO2)c(C)c1` (configuration not stated) the “growth rescue (activation)” value was inactive: 30.5%. With `Cc1ccccc1CCNC(=O)C1CC(O)CN1C(=O)Nc1ccccc1` (configuration not stated) the “growth rescue (activation)” value was inactive: -2.19%. With `COc1ccc(C(=O)Nc2ccc(-c3nc4cc(C)ccc4o3)c(O)c2)cc1` the “growth rescue (activation)” value was inactive: 2.94%. In the case of `CCN1CCC(N(Cc2ccc(F)cc2)C(=O)Nc2ccc(C)c(F)c2)CC1`, the “growth rescue (activation)” value is reported as inactive: 14%. For `CCOC(=O)C1CCN(C(=O)c2ccccc2N(C)S(=O)(=O)c2ccccc2)CC1`, the “growth rescue (activation)” value was inactive: -1.36%. With `CNS(=O)(=O)c1cc(NC(=O)c2cnc(SC)n2-c2ccccc2)ccc1C` the “growth rescue (activation)” value was inactive: 10.6%. For `CCOc1cc(/C=N/NC(=O)c2cc(-c3ccccc3)nc3ccccc23)ccc1O`, the “growth rescue (activation)” value was inactive: 1.5%. For `COc1cc(Cl)c(NC(=O)CN2C(=O)c3cccnc3Sc3ccccc32)c(OC)c1`, the “growth rescue (activation)” value was inactive: 10.5%. With `Cc1nc2ccc(S(=O)(=O)NCC(=O)NCc3ccc(Cl)cc3)cc2s1` the “growth rescue (activation)” value was inactive: 17.2%. In the case of `Cn1nnc2c[n+](CC(=O)c3ccc(Cl)cc3)cc(Br)c21`, the “growth rescue (activation)” value is reported as inactive: 21.3%. With `CS(=O)(=O)c1ccc(SCC(=O)NC2CCS(=O)(=O)C2)c([N+](=O)[O-])c1` (configuration not stated) the “growth rescue (activation)” value was inactive: -15.5%. With `O=C(COC(=O)C(O)c1ccccc1)c1ccc2c(c1)OCCO2` (configuration not stated) the “growth rescue (activation)” value was inactive: 32.6%. With `O=C1NC2(CCCCCC2)C(=O)N1CCS(=O)(=O)Oc1ccccc1` the “growth rescue (activation)” value was inactive: 4.93%. With `CN(C)S(=O)(=O)c1cccc(C(=O)Nc2ccccc2[N+](=O)[O-])c1` the “growth rescue (activation)” value was inactive: 17.9%. In the case of `NC(=O)c1ccc(NC(=O)COC(=O)C2CC3C=CC2C3)cc1` (configuration not stated), the “growth rescue (activation)” value is reported as inactive: 15.3%. In the case of `CC(C)C1CC(CCNCc2ccc3c(c2)OCO3)(c2ccccc2)CCO1` (configuration not stated), the “growth rescue (activation)” value is reported as inactive: 14.3%. In the case of `C=CCn1c(SCC(=O)Nc2cc(C)on2)nnc1-c1ccccc1F`, the “growth rescue (activation)” value is reported as inactive: 3.09%. In the case of `O=C(O)C1=C(Nc2ccccc2)OCC1=O`, the “growth rescue (activation)” value is reported as inactive: 1.81%. With `COc1cccc(C(=O)NCCNC(=O)c2ccccn2)c1` the “growth rescue (activation)” value was inactive: -8.64%. With `O=C(C1=NN(c2ccccc2)C2C(=O)N(c3ccccc3)C(=O)C12)c1ccccc1` (configuration not stated) the “growth rescue (activation)” value was inactive: 8.23%. For `COc1ccc(/C=N/NC(=O)c2cc[n+]([O-])cc2)cc1`, the “growth rescue (activation)” value was inactive: 18.4%. In the case of `CC(=O)Nc1ccc(S(=O)(=O)Nc2ccc(Cc3ccncc3)cc2)cc1`, the “growth rescue (activation)” value is reported as inactive: -22.7%. In the case of `COc1ccc(CCN2C(=O)c3ccccc3NC2c2cc(Cl)c(O)c(OC)c2)cc1` (configuration not stated), the “growth rescue (activation)” value is reported as inactive: 13.9%. With `CN1CCN(c2ccc(CNC(=O)C3Cc4c(-c5ccccc5)ccnc4O3)cc2)CC1` (configuration not stated) the “growth rescue (activation)” value was inactive: 3.06%. For `CCOC(=O)c1ccccc1OC(=O)CS(=O)c1ccccc1[N+](=O)[O-]` (configuration not stated), the “growth rescue (activation)” value was inactive: 22.4%. With `CC(C)[C@H](NC(=O)Cc1ccccc1)C(=O)OCc1cc(=O)n2c(n1)sc1ccccc12` the “growth rescue (activation)” value was inactive: 14.9%. With `CC(C)OC(=O)CSc1nc(N)c(C#N)cc1C#N` the “growth rescue (activation)” value was inactive: 14.3%. For `Cc1nc(NC(=O)/C=C/c2ccco2)sc1C`, the “growth rescue (activation)” value was inactive: -13.4%. For `COc1ccc(-n2nnc(-c3nc(-c4ccc5c(c4)OCO5)no3)c2C)cc1Cl`, the “growth rescue (activation)” value was inactive: -3.54%. For `COc1ccc(/C=C2/SC(=O)N(CCNC(=O)CC(NC(C)=O)c3ccccc3)C2=O)cc1` (configuration not stated), the “growth rescue (activation)” value was inactive: -1.15%. For `Cc1ccc2c(C)nc(/N=C(\N)NC(=O)N3c4ccccc4Sc4ccccc43)nc2c1`, the Potency was “inactive”. With `Cc1ccc(NC(=O)NC(C)c2c(-n3cccc3)sc(C)c2C)c(C)c1` (configuration not stated) the “growth rescue (activation)” value was inactive: 16.3%. In the case of `CCC1Oc2ccccc2N(CC(=O)N2CCOCC2)C1=O` (configuration not stated), the “growth rescue (activation)” value is reported as inactive: -1.09%. For `CCN(CC)S(=O)(=O)c1cc(C(=O)OCC(=O)Nc2cccc(S(=O)(=O)N(C)C)c2)ccc1F`, the “growth rescue (activation)” value was inactive: -0.477%. For `O=C(Nc1cccc(C(F)(F)F)c1)Nc1nnc([C@@H]2C[C@H](O)[C@@H](CO)O2)s1`, the “growth rescue (activation)” value was inactive: 4.66%. For `CC(C(=O)OCC(=O)c1ccc([N+](=O)[O-])cc1)N1C(=O)C2C3CCC(C3)C2C1=O` (configuration not stated), the “growth rescue (activation)” value was inactive: 0.375%. With `CN1CCN(Cc2nc(-c3cccs3)no2)CC1c1ccccc1` (configuration not stated) the “growth rescue (activation)” value was inactive: -16.5%. For `COC(=O)c1ccc(C(=O)OC)c(NC(=O)CSc2nc(-c3ccco3)cc(C(F)(F)F)n2)c1`, the “growth rescue (activation)” value was inactive: -3.86%.
